# Test results: PubChem BioAssay AID651820 (National Center for Advancing Translational Sciences (NCATS), 2012)
# Out of some 340,000 compounds screened, about 12,000 (3.5%) were called active. The inconclusive results got no clear call from the source; some entries with a clear call stand among them for comparison. Calls come from the whole dose curve; as a rule, active = well fitted inhibition curve with a large enough effect; inconclusive = small, poorly fitted or top-dose-only effect, or another doubt; inactive = no such curve, though single readings can be large or run the other way. Potencies of inconclusive entries are left out as doubtful fits.
# Assay: qHTS Assay for Inhibitors of Hepatitis C Virus (HCV)
# Settings: Huh7.5.1 HCVcc-Cre (HCVcc is cell-culture hepatitis C virus) infection, luciferase reporter, 44 h; series mostly up to 41.8 µM
# In short: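 Seed cells (1,000/well) for 4 h; treat with compound and infect with HCVcc-Cre, moi about 0.5. Incubate 44 h, then detect luciferase activity.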
# Potency is the fitted concentration of half-maximal effect; tags give direction and shape of the fitted curve.
row,Structure (SMILES),Potency
1,C(=NN=C1c2ccccc2-c2ccccc21)c1c[nH]c2ccccc12,"inconclusive [inhibitor, partial curve]"
2,COc1ccccc1OC(C)C(=O)Nc1nc(-c2ccc(S(=O)(=O)N3CCOCC3)cc2)cs1 (configuration not stated),"inconclusive [inhibitor, partial curve]"
3,Cc1ccc(S(=O)(=O)Nc2cccc(NC(=O)CN3CCCCC3)c2)cc1,"inconclusive [inhibitor, single point]"
4,Cn1cc(CN2CCC(CO)CC2)c(-c2ccc(Oc3ccccc3)cc2)n1,inactive
5,CC1(c2ccc(OC(F)F)cc2)NC(=O)N(CC(=O)Nc2ccc3c(c2)OCO3)C1=O (configuration not stated),"inconclusive [inhibitor, partial curve]"
6,O=C(Cc1ccccc1)NCC(=O)N/N=C/c1ccc([N+](=O)[O-])s1,"inconclusive [inhibitor, single point]"
7,CCOC(=O)c1ccc(NC(c2ccc(N(C)C)cc2)P(=O)(OC(C)C)OC(C)C)cc1 (configuration not stated),"inconclusive [inhibitor, single point]"
8,C=CCc1ccccc1OCC(O)CN1CCN(c2ccccc2F)CC1 (configuration not stated),inactive
9,CC(=O)N(C)c1ccc(C(O)(C(F)(F)F)C(F)(F)F)cc1,inactive
10,CC(OC(=O)Cn1cc(C(F)(F)F)ccc1=O)C(=O)NC(C)c1ccc(Cl)cc1Cl (configuration not stated),"inconclusive [inhibitor, partial curve]"
11,O=C(CCN1C(=O)/C(=C/c2ccc(Cl)cc2)SC1=S)NC1C=CS(=O)(=O)C1 (configuration not stated),inactive
12,CCc1ccc(-c2cn(-c3nc(C)cc(C)n3)c(=N)o2)cc1,active: 22.4 µM
13,Cc1cc(N2CCN(c3ccc(C(F)(F)F)cc3[N+](=O)[O-])CC2)c2ccccc2n1,active: 10 µM
14,Clc1ccc(CSc2nnc(-c3ccccn3)n2Cc2ccco2)c(Cl)c1,"inconclusive [inhibitor, single point]"
15,COc1ccc2c(c1)c(C(=O)O)c(C)n2CCc1ccc(OC)c(OC)c1,inactive
16,Cc1c(O[C@@H]2O[C@H](CO)[C@@H](O)[C@H](O)[C@H]2O)ccc2c1oc(=O)c1ccccc12,"inconclusive [inhibitor, single point]"
17,COc1ccc2oc(C(=O)Nc3nc4ccccc4[nH]3)c(C)c2c1,"inconclusive [inhibitor, partial curve]"
18,CCOC(=O)c1cnc(SC)nc1Nc1cccc(F)c1,"inconclusive [inhibitor, single point]"
19,COc1ccc(NC(=S)N2CCCC(c3nc4ccc(C)cc4[nH]3)C2)cc1 (configuration not stated),active: 5.01 µM
20,COc1ccccc1NS(=O)(=O)c1cc(NC(=O)c2cc3ccccc3oc2=O)ccc1C,"inconclusive [inhibitor, partial curve]"
21,C=C(C)CNC(=S)N/N=C/C1=CCC2CC1C2(C)C (configuration not stated),"inconclusive [inhibitor, single point]"
22,COC(=O)c1ccc(C)cc1C1CN=NC12Cc1cc(C)ccc1C2=O (configuration not stated),"inconclusive [inhibitor, single point]"
23,Cc1cccc(Nc2ccccc2)c1,"inconclusive [inhibitor, single point]"

row,Structure (SMILES),Potency
1,CCC(=O)N(CCc1ccccc1C)Cc1cc2ccc(C)cc2[nH]c1=O,"inconclusive [inhibitor, single point]"
2,CCCC(=O)Nc1ccc(C(=O)/C=C/c2ccc(SC)cc2)cc1,active: 11.2 µM
3,COc1ccc(CNC(=O)C/C(C)=N/NC(=O)c2ccc(OC)cc2OC)cc1,"inconclusive [inhibitor, single point]"
4,CCNCCC(=O)N1c2ccccc2Sc2ccc(C(F)(F)F)cc21,"inconclusive [inhibitor, single point]"
5,CCOc1ccc(CSC2=NCCN2)cc1Cl,"inconclusive [inhibitor, single point]"
6,Cc1cccc(Oc2ccc(S(=O)(=O)N3CCCCC3)cc2N)c1,active: 12.6 µM
7,Cn1cc([N+](=O)[O-])c(C(=O)Nc2ccn(Cc3c(F)c(F)cc(F)c3F)n2)n1,"inconclusive [inhibitor, single point]"
8,COc1ccc(/C=C2/CCc3ccccc3C2=O)cc1OC,"inconclusive [inhibitor, partial curve]"
9,O=S(=O)(c1cccs1)N1CCN(CC(O)COc2cc(Cl)ccc2Cl)CC1 (configuration not stated),"inconclusive [inhibitor, partial curve]"
10,CCN(CC)S(=O)(=O)c1ccc(N2CCOCC2)c(NC(=O)c2sccc2C)c1,"inconclusive [inhibitor, partial curve]"
11,Cc1cc(NC(=O)c2c(-c3c(Cl)cccc3Cl)noc2C)n(C)n1,inactive
12,CCOC(=O)C1=C(COC(=O)c2cccc(N(C)C)c2)NC(=O)NC1C (configuration not stated),"inconclusive [inhibitor, full curve, poor fit]"
13,O=[N+]([O-])c1ccc(/C=N/NC(=S)Nc2ccc(Cl)cc2Cl)s1,"inconclusive [inhibitor, partial curve]"
14,Brc1ccc(CN2CCN(Cc3c[nH]c4ccccc34)CC2)cc1,"inconclusive [inhibitor, single point]"
15,Cc1cccc(NC(=O)c2cc([N+](=O)[O-])ccc2N2CCN(C)CC2)c1,"inconclusive [inhibitor, single point]"
16,CSc1ccc(C(=O)C2CCCN(Cc3cccnc3)C2)cc1 (configuration not stated),"inconclusive [inhibitor, partial curve]"
17,COCCCNCCOCCOc1ccc(Cl)cc1C(C)(C)C,"inconclusive [inhibitor, partial curve]"
18,O=C(NOCc1ccccc1)c1coc(-c2ccccc2)n1,"inconclusive [inhibitor, single point]"
19,CCOC(=O)c1c(C)n(C)c2ccc(OC)c(NS(=O)(=O)c3ccc(Cl)s3)c12,"inconclusive [inhibitor, partial curve]"
20,Cn1c(=O)c2c(nc(CN3CCN(Cc4ccccc4)CC3)n2Cc2ccc(Cl)cc2)n(C)c1=O,"inconclusive [inhibitor, single point]"
21,Cc1ccc(-n2c(CSc3nc(C)cc(C)n3)nnc2SCC(=O)N2CCCC2)cc1,"inconclusive [inhibitor, partial curve, poor fit]"
22,Clc1ccc(OCC#CCN2CCCCCC2)cc1,inactive
23,Cc1c2c(nc3c(C(=O)NC4CC4)cnn13)CCCC2,"inconclusive [inhibitor, partial curve]"

row,Structure (SMILES),Potency
1,CC(=O)Nc1nc2c(s1)CCc1ccccc1-2,"inconclusive [inhibitor, single point]"
2,CCCCNC1=CC(=O)C(=O)c2ccccc21,active: 11.2 µM
3,COc1ccc(C(=O)Nc2ccc(-c3nnn(CC(=O)NCc4ccco4)n3)cc2)cc1,inactive
4,CC(=O)c1ccc(N2CCN(C(=O)C(=O)c3c(C)[nH]c4ccccc34)CC2)cc1,inactive
5,COC(=O)c1cc(NCc2c(F)cccc2Cl)ccc1N1CCOCC1,"inconclusive [inhibitor, single point]"
6,Cc1cccc(-n2ccnc2SCC(=O)Nc2ccc3c(c2)OCCO3)c1,inactive
7,O=C(CSc1ccc(-c2ccc(F)cc2)nn1)NCc1ccco1,inactive
8,O=C(c1ccc(Cn2c(=S)[nH]c3cc4c(cc3c2=O)OCO4)cc1)N1CCN(c2ccccc2)CC1,"inconclusive [inhibitor, partial curve, poor fit]"
9,O=C(/C=C/c1c(F)cccc1Cl)Nc1cccnc1,inactive
10,COc1ccc(N(CC(=O)NN=C2CCN(C)CC2)S(=O)(=O)c2ccccc2)c(OC)c1,inactive
11,CCc1cccc(NC(=O)C2CCCN(S(=O)(=O)c3cccs3)C2)c1 (configuration not stated),"inconclusive [inhibitor, single point]"
12,CCOC(=O)c1ccc(NS(=O)C23CC4CC(CC(C4)C2)C3)cc1 (configuration not stated),"inconclusive [inhibitor, single point]"
13,CCOC(=O)c1nn(-c2ccc(C)cc2)c(=O)c2c(N)scc12,"inconclusive [inhibitor, partial curve]"
14,CCCOc1ccc(CSCCNC(=S)Nc2ccccc2)cc1,"inconclusive [inhibitor, partial curve, poor fit]"
15,COc1ccc2c(c1)[C@H]1[C@H](CO2)[C@H](c2ccccc2)[C@]2(C)C(=O)Nc3cc(Cl)ccc3C(=O)N12,"inconclusive [inhibitor, partial curve]"
16,O=C(NCc1ccccc1CN1CCCC1)C1CCN(S(=O)(=O)c2ccc(Cl)cc2)CC1,"inconclusive [inhibitor, partial curve]"
17,O=C(NC1(C(F)(F)F)Oc2ccc(Cl)cc2O1)N1CCC2(CC1)OCCO2 (configuration not stated),"inconclusive [inhibitor, single point]"
18,O=C(c1nc2ccccn2c1CNCCn1ccc2ccccc21)N1CCOCC1,"inconclusive [inhibitor, single point]"
19,CN=c1sc2c(n1C)C(=O)c1ccccc1C2=O,"inconclusive [inhibitor, full curve]"
20,CCN(CC(=O)NCc1cccs1)C(=O)c1ccc(S(=O)(=O)Nc2ccccc2Cl)cc1,inactive
21,COc1ccc(C(=O)OC(C)C(=O)NC(C)CCc2ccccc2)cc1OC (configuration not stated),"inconclusive [inhibitor, partial curve]"
